Data: paper PMC6919601, “Identification of Plasmodium dipeptidyl aminopeptidase allosteric inhibitors by high throughput screening” (PLoS ONE, 2019)
Where “and” joins values, the source holds several entries; their conditions need not be identical. Equal entries are not always repeated. Among all 110,000 compounds or so, about 230 (0.21%) showed an effect of 50% or more. Some of the results follow.

target: DPAP1 (Plasmodium falciparum, UniProt Q8IIJ9); test: primary screen, percent inhibition; read by cleavage of a fluorogenic dipeptide substrate; higher = more effect of the substance; design: species or system P. falciparum D10 trophozoite lysates; single well
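Further: 30 min substrate incubation versus DMSO and 10 µM JCP410 controls.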

Sequence of DPAP1 (Q8IIJ9 whole entry, looked up): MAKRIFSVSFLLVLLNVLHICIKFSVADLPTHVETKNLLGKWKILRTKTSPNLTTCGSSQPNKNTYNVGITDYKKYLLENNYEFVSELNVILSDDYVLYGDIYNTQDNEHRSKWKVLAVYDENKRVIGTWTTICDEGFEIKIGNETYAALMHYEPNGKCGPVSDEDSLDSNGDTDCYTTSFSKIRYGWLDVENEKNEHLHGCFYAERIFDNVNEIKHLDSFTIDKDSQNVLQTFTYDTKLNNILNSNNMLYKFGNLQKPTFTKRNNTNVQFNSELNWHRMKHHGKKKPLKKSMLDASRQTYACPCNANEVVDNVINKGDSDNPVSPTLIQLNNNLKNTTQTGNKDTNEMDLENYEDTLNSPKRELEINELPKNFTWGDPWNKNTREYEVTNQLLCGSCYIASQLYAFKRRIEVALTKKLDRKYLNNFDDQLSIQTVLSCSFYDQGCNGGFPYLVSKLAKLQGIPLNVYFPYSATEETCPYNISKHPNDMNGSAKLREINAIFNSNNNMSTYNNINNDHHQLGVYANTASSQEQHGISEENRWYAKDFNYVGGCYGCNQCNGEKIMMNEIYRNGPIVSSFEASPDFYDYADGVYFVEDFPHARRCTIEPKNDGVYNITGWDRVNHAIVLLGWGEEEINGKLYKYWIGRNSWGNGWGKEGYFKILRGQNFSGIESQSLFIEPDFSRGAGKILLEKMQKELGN

| Compound | % Inhibition @ 10 uM |
| --- | --- |
| CCCn1c(-c2cccc(C)c2)nc2ccccc21 | 2.73% |
| COc1ccc(Cl)cc1NC(=O)CC(C(=O)O)N1CCNCC1 (stereo not drawn) | -9.19% |
| CCC(C(=O)N1CCN(c2ccccn2)CC1)n1nc(C)c2sc3ccccc3c2c1=O (stereo not drawn) | -3.6% |
| CN(C)CCCN(CCCN(C)C)CC1CC2C=CC1C2 (stereo not drawn) | 0.0792% |
| NS(=O)(=O)c1ccc(NC(=O)c2cccc(F)c2)cc1 | 0.177% |
| CC(C)(C)c1ccc(C(=O)NCc2cccnc2)cc1 | -5.36% |
| CC1(C)Oc2ccc3ccc(=O)oc3c2C(N2CCCCC2)C1O (stereo not drawn) | 2.1% |
| Fc1ccc(N2N=C(c3ccc(Br)cc3)CC2c2cccs2)c(F)c1 (stereo not drawn) | 1.91% |
| COc1ccc(C2C(C(=O)Nc3ccccc3C)=C(C)Nc3ncnn32)c(OC)c1 (stereo not drawn) | 4.75% |
| OC1=C2C(=Nc3[nH]nc(-c4ccccc4)c3C2c2cccs2)CCC1 (stereo not drawn) | -0.326% |
| NC12CC3CC(C1)CC(C(=O)O)(C3)C2 | 0.526% |
| Cc1ccc(C)c(Cn2cc(C=O)c3ccccc32)c1 | -2.72% |
| CC(NC(=O)C1CCN(S(=O)(=O)c2ccc(Br)s2)CC1)c1ccccc1 (stereo not drawn) | -2.56% |
| COc1ccc(C2=NN(CC(=O)NCCCN(C)Cc3ccccc3)C(=O)CC2)cc1 | -3.58% |
| COc1cc2c(cc1OC)C(c1cc(OC)c(OC)cc1[N+](=O)[O-])NCC2 (stereo not drawn) | -2.59% |
| COc1ccc(N(C(C)C(=O)N(C)Cc2ccccc2)S(C)(=O)=O)cc1 (stereo not drawn) | -0.69% |
| COc1ccc(-c2csc3ncn(CC(=O)Nc4sc5c(c4C#N)CCC5)c(=O)c23)cc1OC | -4.76% |
| CC(C)(C)NCCCOc1cccc(Cl)c1Cl | 3.48% |
| c1ccc2c(c1)CC1(CCCCC1)N=C2N1CCOCC1 | -3.95% |
| Cc1ccc2c(c1)-c1onc(C(=O)Nc3ccc(Cl)cn3)c1CO2 | -3.17% |
| O=C(Nc1ncc(Br)s1)C(Cc1ccccc1)n1cccc1 (stereo not drawn) | 2.6% |
| O=C1CSC2N1CCNC21CCCCC1 (stereo not drawn) | -4.21% and -2.97% |
| OCc1nc2ccccc2n1Cc1ccc(Cl)cc1 | 1.27% |
| CCC(CC)C(=O)Nc1ccc2c(c1)C(=O)N(CCC(=O)O)C2=O | -0.891% |
| NC(=O)C1=CN(Cc2ccccc2)C=CC1 | -6.82% |
| COCCn1c(Cc2cccn2C)nnc1SCC(=O)NCc1ccc2c(c1)OCO2 | -1.84% |

| Compound | % Inhibition @ 10 uM |
| --- | --- |
| NC1=NC2(CCCCC2)n2c(nc3ccccc32)N1 | -1.72% |
| Cc1ccc(-n2nc(C)c(CCC#N)c2O)cc1 | -2.73% |
| CCN(CC)C(=O)C1c2ccccc2C(=O)N(C2CCCC2)C1c1cccs1 (stereo not drawn) | -5.3% |
| COc1ccc(CC(=O)Nc2c3c(nn2-c2ccc(F)cc2)CS(=O)(=O)C3)cc1OC | -4.18% |
| COc1cccc(NC(=O)c2ccncc2)c1 | -0.294% |
| COc1ccc2[nH]c(C)c(CCNC(=S)NCc3ccccc3)c2c1 | -0.431% |
| CC(CNC(=O)Cc1ccccc1)NC(=O)Cc1ccccc1 (stereo not drawn) | -2.99% |
| CCOc1ccccc1N(CC(=O)NCc1ccccc1)S(C)(=O)=O | -2.8% |
| COC(=O)c1ccc(CN2CCCCCC2)cc1 | -3.5% |
| O=C(NCc1ccc(F)cc1)c1nc(-c2cccs2)no1 | -4.42% |
| Cc1oc(N)c(C#N)c1C | 1.46% |
| COCCCNC(=O)/C(C#N)=C/c1c(Oc2ccc(Br)cc2)nc2c(C)cccn2c1=O | -3.23% |
| Cc1nc2ccccc2n1C(=O)c1ccc(Cl)cc1 | -0.192% |
| O=C(/C=C/c1ccc(F)cc1)NC(=S)N1CCCCC1 | -2.59% |
| O=C(Nc1ccccc1Br)c1ccc(F)cc1 | -0.294% |
| COc1ccc(S(=O)(=O)NCC(=O)Nc2ccc(Oc3ccccc3)cc2)cc1 | 3.37% |
| COCCNC(=O)Cc1c(C(=O)O)n(C)c2ccccc12 | 0.457% |
| COC(=O)C1CCCc2c1[nH]c1ccc(Cl)cc21 (stereo not drawn) | 6.39% |
| CCn1c(C(=O)NC(C)CCc2ccccc2)cc2sccc21 (stereo not drawn) | -8.58% |
| Cc1cccn2c(=O)c(/C=C(\C#N)C(=O)NCC3CCCO3)c(Oc3ccccc3F)nc12 (stereo not drawn) | -1.43% |
| Cc1ccc(C(=O)CCNc2ccc(Cl)cc2)o1 | -4.93% |
| Cn1cnc2c(=O)oc3ccc(S(=O)(=O)NCCC4=CCCCC4)cc3c21 | -3.66% |
| C=CCOc1ccccc1/C=c1\sc2nc(=O)c(-c3ccccc3)nn2c1=O | -5.2% |
| CN(CC(=O)N1CCN(c2ccccc2)CC1)S(=O)(=O)c1cc(Cl)ccc1Cl | -3.77% |
| CCC(C)NC(=O)Cn1ccc2cc(S(=O)(=O)N3CCCC3)ccc21 (stereo not drawn) | 3.64% |
| CCn1c(-c2ccccc2)cc(C(=O)O)c1C | -3.33% |

| Compound | % Inhibition @ 10 uM |
| --- | --- |
| CC(Cc1ccc(OCCCN(C)C)cc1)N(C)C (stereo not drawn) | -3.65% |
| CC1=C(C(=O)Nc2cccc(C)c2C)C(c2ccc(N(C)C)cc2)NC(=O)N1 (stereo not drawn) | 3.27% |
| Cc1ccc(S(=O)(=O)Nc2cc(S(N)(=O)=O)ccc2C)cc1 | -3.72% |
| COc1ccc(S(=O)(=O)N2CC=C(c3c(C)n(CC(=O)N4CCCC4)c4ccccc34)CC2)cc1 | 3.96% |
| O=C(O)c1cc(-c2ccncc2)nc2[nH]nc(-c3ccc(F)cc3)c12 | -6.69% |
| Cc1ccc2nc(N3CCCCCC3)c3nnnn3c2c1 | -0.943% |
| OC1CCCN(Cc2cc(Br)cs2)C1 (stereo not drawn) | -4.5% |
| CCC(C)N1CCN(Cc2cccc(OC)c2OC)CC1 (stereo not drawn) | 5.15% |
| CC(C)(C)c1ccc(-c2noc(CCC(=O)N3CCCCC3)n2)cc1 | 2.02% |
| CCC(Sc1nc2ccccc2c2nc(CCn3cncc3C)nn12)C(=O)NC1CCCCC1 (stereo not drawn) | 1.91% |
| CN1CCN(Cc2ccc(F)c(Br)c2)CC1 | -1.86% |
| CCOC(=O)C1=C(C)OC(N)=C(C#N)C1c1c(C)c(C)cc(C)c1C (stereo not drawn) | 0.968% |
| Cc1ccc(N2CCN(c3ncnc4c3cnn4-c3ccccc3)CC2)cc1 | -6.74% |
| CCN1CCCC1CNC(=O)c1cnn(-c2ccc(F)cc2)c1C1CCN(C(=O)OC(C)(C)C)CC1 (stereo not drawn) | -0.887% |
| COc1ccc(-c2cc(C(F)(F)F)n3nc(C(=O)NCC4CCCO4)cc3n2)cc1 (stereo not drawn) | -0.795% |
| COc1c(Br)cc(Cl)cc1C1C(C#N)=C(N)OC2=C1C(=O)CC(C)(C)C2 (stereo not drawn) | 8.5% |
| Cc1ccc(NC(=O)C23CC4CC(CC(C4)C2)C3)cc1[N+](=O)[O-] | -7.87% |
| OC(CN1CCNCC1)Cn1c2ccccc2c2cc(Br)ccc21 (stereo not drawn) | 5.01% |
| CC(C)(C)OC(=O)NC(CC1CCOCC1)C(=O)NCC#N (stereo not drawn) | -3.48% |
| O=C(Cc1cccc2ccccc12)NC1CCCCCC1 | 0.238% |
| OC1CCCN(Cc2ccccc2Cl)C1 (stereo not drawn) | 3.16% |
| O=C1C2CC=CCC2C(=O)N1c1ccccc1 (stereo not drawn) | -5.84% |
| COc1ccc(-c2nc3nc(C)c(Cl)c(C)n3n2)cc1 | -0.671% |
| CCC1(CC)C(=O)NC(=O)N(C(=O)c2ccccc2)C1=O | -3.58% |
| CC(C)CCNC(=O)C1CCCN(c2nnc(-n3cccc3)s2)C1 (stereo not drawn) | 1.15% |
| N#Cc1ccc(Cn2cc(C(=O)C(=O)N3CCCCC3)c3ccccc32)cc1 | -0.124% |

| Compound | % Inhibition @ 10 uM |
| --- | --- |
| CCOC(=O)c1cnc2c(ccc3ccccc32)c1NCCN(C)C | -2.87% |
| CN(CC(=O)Nc1ccc(S(N)(=O)=O)cc1)S(=O)(=O)c1cc(Cl)ccc1Cl | -2.8% |
| CN(C)c1ccc2c(c1)OC(N)=C(C#N)C2c1ccc(C(F)(F)F)cc1 (stereo not drawn) | 6.41% |
| CCN(CC)C(=O)C1CCN(c2ncnc3c2nc2n3CCCCC2)CC1 | 6.14% |
| Cc1ccc(NS(=O)(=O)c2cccc(C(=O)NCc3ccccc3)c2)cc1 | 3.25% |
| CCN(CC)C(=O)C1CCCN(Cc2cccc(F)c2)C1 (stereo not drawn) | -1.92% |
| CCCOc1ccc2ccccc2c1/C=N/n1c(C)nnc1-n1nc(C)cc1C | -4.85% |
| Cn1c(C(=O)NCc2ccco2)cc2c(=O)n3ccccc3nc21 | 2.03% |
| O=C(Cc1ccccc1)NCCCc1nc2ccccc2n1Cc1ccccc1F | -1.29% |
| C=CCOc1ccc(C(=O)NCC2OCCc3ccccc32)cc1 (stereo not drawn) | -3.41% |
| CCC(C)/N=c1/c(-c2ccc(C)cc2)c(O)c1=O (stereo not drawn) | -2.57% |
| O=c1oc(-c2ccc(Br)cc2)nc2ccccc12 | 4.22% |
| Nc1cc(-c2ccccc2)nn1S(=O)(=O)c1cc(Cl)sc1Cl | -0.495% |
| CN(C)c1ccc(C2C3C(=O)N(Cc4ccccc4)C(=O)C3ON2c2ccccc2)cc1 (stereo not drawn) | -2.8% |
| CN(C1CCCCC1)S(=O)(=O)c1ccc(N)cc1 | 2.32% |
| CCCCCCN1CC(=O)C(c2nc3ccccc3[nH]2)=C1N | 3.74% |
| O=C(Nc1nnc(N2CCCCC2)s1)NC12CC3CC(CC(C3)C1)C2 | -4.68% |
| O=C(CCCn1c(=O)c2cccn2c2cccnc21)N1CCC(Cc2ccccc2)CC1 | 0.677% |
| O=C(O)C1CCCCC1C(=O)Nc1nc2ccc(Cl)cc2s1 (stereo not drawn) | -4.7% |
| Cc1ccc(Cn2c(C(=O)O)c(CNC3CCC(C)CC3)c3ccc(C)cc32)cc1 (stereo not drawn) | 8.35% |
| O=C(CN1N=C(c2ccccc2)CCC1=O)NCCCN1CCN(Cc2ccccc2)CC1 | -4.83% |
| CCc1ccc(S(=O)(=O)N2CCN(S(=O)(=O)c3ccc(CC)cc3)C(C)C2)cc1 (stereo not drawn) | 2.26% |
| CC[Si](C)(CC)CCCn1c(=O)c2c(nc(N3CCOCC3)n2C)n(C)c1=O | -1.47% |
| Cc1cc(C)c(S(=O)(=O)/N=C2/C=C(SCC(=O)O)C(=O)c3ccccc32)c(C)c1 | 0.0539% |
